According to PubChem BioAssay AID493208 (National Center for Advancing Translational Sciences (NCATS), 2011):
The whole screen tested about 44,000 compounds, of which about 340 (0.77%) were called active. Inconclusive results (about 5%) are left out. Calls come from the whole dose curve; as a rule, active = well fitted inhibition curve with a large enough effect; inconclusive = small, poorly fitted or top-dose-only effect; inactive = flat fitted curve, though single readings scatter. The list shows a part of the results.

assay: Acumen qHTS Assay for Inhibitors of the mTORC1 Signaling Pathway in MEF (Tsc2-/-, p53-/-) Cells: Sytravon; conditions: phospho-rpS6 immunofluorescence/PI, 24 h; series mostly up to 38.3 µM; activity change, negative = inhibition: at the top concentration;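 note: plate controls were DMSO for no effect and rapamycin for full effect; nearly all actives have a fitted effect of over 50% in size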
In short: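 Plate MEFs (Tsc2-/-, p53-/-, empty vector) in DMEM/10% FBS; after 24 h add compound, incubate 24 h at 37 degree Celsius; fix in PFA/TX-100, block, stain phospho-rpS6 and 10 uM PI; scan at 488 nm; report % positive cells.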

Activity change, negative = inhibition, inactive:
Cc1c(C(=O)N2CCC(C)CC2)c(S(=O)(=O)NCc2ccccc2)c(C)n1C 0%, Cc1nn(C(=O)c2ccccc2F)c(C)c1S(=O)(=O)N1CCOCC1 -1.61%, COc1ccc(Nc2ncnc3c2cnn3-c2ccc(C)cc2C)cc1 -0.524%, COc1cccc(CC(=O)Nc2ccc3nc(N4CCC(C)CC4)cc(C)c3c2)c1 11.9%, CCOc1ccccc1NS(=O)(=O)c1c(C)nc2sccn2c1=O 3.94%, Cc1ccc(C(=O)Nc2ccc(Br)cc2)cc1S(=O)(=O)N1CCOCC1 -5.12%, CC(=O)c1cccc(NC(=O)Cn2c(=O)c(CNc3ccc(C)cc3)cc3cc4c(cc32)OCCO4)c1 -0.224%, CCn1c(=O)c2cc(C(=O)N(CCCOC(C)C)Cc3ccco3)sc2c2ccccc21 -9.37%, Cc1ccc(-c2sc(C(=O)Nc3ccc(Br)cc3)cc2CC(=O)O)cc1 -1.22%, Cc1cc(C)c(NC(=O)Cn2c(SCC(=O)NCc3ccccc3)nc3ccccc32)c(C)c1 24.2%, COc1cccc(CNC(=O)C2CCN(S(=O)(=O)c3ccc4c(ccn4C)c3)CC2)c1 0.037%, COc1ccc(-c2cn3cccnc3n2)cc1NC(=O)c1c(F)cccc1F -16.7%, CSc1ccc(C2c3[nH]c4ccccc4c3CCN2C(=O)CCc2ccccc2)cc1 (configuration not stated) 0.465%, COc1cc(Cl)c(C)cc1NC(=O)CCn1c(=O)c2cccn2c2cccnc21 3.88%, Cc1ccc(-n2nc3c(=O)n(CCCC(=O)NCCc4ccccc4)nc(C)c3c2C)cc1 1.88%, CC(C)c1nc2ccc(C(=O)NCc3ccc(N(C)C)cc3)cc2o1 -17.6%, COc1ccc(C)cc1Nc1nc2ccccc2c2nnc(C)n12 2.1%, Cc1cccc(CCNC(=O)CCS(=O)(=O)c2cc3c(cc2Cl)NC(=O)CO3)c1 0%, CCN1CCN(C(c2cccc(F)c2)c2c(O)cc(C)n(CCOC)c2=O)CC1 (configuration not stated) 0.877%, COc1ccc(Cl)cc1NC(=O)c1cc(S(=O)(=O)N2CCC(C)CC2)cn1C -3.58%, CCc1nc2cccnc2n1-c1ccc(CC(=O)Nc2ccccc2Cl)cc1 1.02%, Cc1cccc(NC(=O)CSc2nc3c(oc4ccccc43)c(=O)n2Cc2ccco2)c1 3.11%, CC(C)C(=O)Nc1ccc2nc(SCC(=O)N3CCOCC3)sc2c1 -5.67%, Cc1cc(NS(=O)(=O)c2ccc3nc(-c4ccccc4)[nH]c3c2)ccc1Br 2.62%, CCOC(=O)c1c(N)n(-c2ccccc2CC)c2nc3ccccc3nc12 -0.281%, COc1ccccc1-c1noc(CSc2nnc(Cc3ccccc3)n2-c2ccc(C)c(C)c2)n1 -1.97%, Cc1ccc(C)n1-c1nnc(N2CCC(C(=O)NCc3ccc(F)cc3)CC2)s1 0.859%, Cc1ccc(N2CC(c3nnc(NC(=O)c4ccco4)s3)CC2=O)cc1Cl (configuration not stated) 0.706%, O=S(=O)(c1ccc(Br)cc1)c1nnn2c1nc(NC1CCCCCC1)c1sccc12 -3.04%, CCC(=O)Nc1sc2c(c1C(=O)Nc1ccccc1C)CCC(C)C2 (configuration not stated) -4.65%, Cn1c(=O)c2sccc2n2c(CCC(=O)N3CCN(c4ccccc4)CC3)nnc12 1.11%, Cc1ccc(-n2nc3ccc(NC(=O)c4cc5ccccc5o4)cc3n2)cc1 -5.2%, CCC(Cc1ccccc1)NC(=O)c1oc(=O)c2ccccc2c1-c1ccccc1 (configuration not stated) -0.94%, COC(=O)c1ccccc1NC(=O)c1noc2c1CSc1ccccc1-2 -3.3%, COc1ccc2nc(NC(=O)c3ccc(S(=O)(=O)N4CCC(C)CC4)cc3)sc2c1 2.89%, CCOC(=O)c1cccc(NC(=O)NCCc2c(C)nn(C)c2C)c1 0%, Cc1cccc(C)c1OCCCCn1c(C2CC(=O)N(c3ccc(F)cc3)C2)nc2ccccc21 (configuration not stated) -8.74%, CCc1ccc(NC(=O)N2CCN(Cc3cc(=O)n4nc(-c5ccccc5OC)sc4n3)CC2)cc1 -11%, COC(=O)c1cc2occc2n1CC(=O)Nc1cccc(SC)c1 -10.2%, COc1ccc(-c2cc(C(=O)Nc3cc(C)ccc3O)no2)cc1OC -9.42%, CCn1c(=N)c(C(=O)NCc2cccnc2)cc2c(=O)n3cc(C)ccc3nc21 -10.8%, O=S(=O)(NCC(c1ccco1)N1CCN(c2ccc(F)cc2)CC1)c1ccccc1 (configuration not stated) -10.1%, COc1ccc(-c2nc(CSCC(=O)NCCc3ccc(C)cc3)c(C)o2)cc1OC -1.29%, CCCCN(Cc1ccccc1)S(=O)(=O)c1ccc2c(c1)CC(C)N2C(=O)CC (configuration not stated) -9.43%, COc1ccccc1Cc1nc2ccccc2nc1SCC(=O)NCCc1ccccc1 -8.9%, CCN(CC)CCCNC(=O)c1c(C)oc2ncnc(N3CCOCC3)c12 -1.64%, CCOC(=O)Cn1cc2c(c1-c1ccc(Cl)cc1)c(=O)n(C)c(=O)n2C 3.43%, CCc1noc2nc(C)n(CC(=O)O)c(=O)c12 5.11%, CN(C(=O)CSc1nc2ccccc2n1CC(=O)NCc1ccc(F)cc1)c1ccc(F)cc1 0%, CCS(=O)(=O)c1ccccc1C(=O)N(Cc1cccnc1)c1nc2cc(C)c(C)cc2s1 -3.25%, CCOc1ccc(CNC(=O)c2ccc(NC(=O)c3nsc4ccccc34)cc2)cc1 -6.87%, Cc1cccc(-n2c(=O)c3c(c4cc(C)ccc4n3C)n(CC(=O)Nc3ccccc3C(F)(F)F)c2=O)c1 -10.5%, c1ccc(C(c2cccs2)c2c[nH]c3ccccc23)cc1 (configuration not stated) 8.39%, Cc1ccc(-c2noc(CN(C3CCCCC3)S(=O)(=O)c3ccc(Cl)cc3)n2)cc1 3.42%, COc1ccc(-c2nc3n(n2)C(c2ccccc2F)C(C(=O)Nc2cccnc2)=C(C)N3)cc1OC (configuration not stated) -18%, Cc1ccc(CNc2ncnc3c2c(-c2ccccc2)cn3-c2cccc(Cl)c2)cc1 12.8%, CCCCN(C(=O)c1cccc(S(=O)(=O)N2CCCCC2)c1)C1CCS(=O)(=O)C1 (configuration not stated) -16.7%, COCCCNC(=O)c1sc2ncccc2c1-n1cccc1 2.42%, O=C(Nc1ccc(F)c(Cl)c1)N1CCN2CCCCC2C1 (configuration not stated) -2.68%, COc1ccc(NCc2ccccc2-c2nnc(-c3ccccc3)o2)cc1Cl -1.77%, CCN(CC)c1ccc(-c2nc(-c3ccncc3)no2)cc1[N+](=O)[O-] 6.1%, CCc1cccc2sc(N3CCN(C(=O)C4CC4)CC3)nc12 -0.611%, Cc1cc(NC(c2nnc(-c3ccccc3)o2)c2ccccc2F)ccc1Br (configuration not stated) -14.4%, CCN1C(=O)c2cccc3c(S(=O)(=O)Nc4ccc(O)c(C(=O)O)c4)ccc1c23 -2.36%, CCS(=O)(=O)Nc1cc(-c2cn3ccc(C)cc3n2)ccc1C -0.647%, CC(C)(C)OC(=O)N1CCC(c2c(C(=O)N3CCc4ccccc4C3)cnn2-c2ccc(Cl)cc2)CC1 -7.83%, CCOc1ccccc1C(=O)N(Cc1ccc(N(C)C)cc1)CC1CCCO1 (configuration not stated) -11.1%, Cc1cc(C)cc(C(=O)N2CC(=O)Nc3ccc(C)cc3C2c2ccccc2)c1 (configuration not stated) 16.2%, CCCCNC(=O)CSc1nc2cc3c(cc2c(=O)n1CCCC(=O)NCc1ccc2c(c1)OCO2)OCO3 -3.47%, COc1ccccc1NC(=O)CSc1ncc2c(n1)-c1ccccc1N(Cc1ccccc1C)S2(=O)=O 2.31%, CCOC(=O)C1CCCN(S(=O)(=O)c2cc(-c3cc(C)no3)ccc2OC)C1 (configuration not stated) -17.5%, CC(C)CC(=O)Nc1ccc2nc(SCC(=O)N3CCc4ccccc43)sc2c1 1.32%, CCOc1ccccc1CNC(=O)c1sc2ncccc2c1-n1cccc1 -21.8%, CCOc1cc(C2c3c(-c4cc(C)ccc4O)n[nH]c3C(=O)N2CCCOC(C)C)ccc1O (configuration not stated) -15.7%, CCn1ccc2cc(S(=O)(=O)N3CCCN(C(=O)Nc4ccccc4F)CC3)ccc21 6.13%, O=C(COC(=O)c1cc(-c2cccs2)nc2ccccc12)c1ccc(F)cc1 9.27%, O=C(CSc1nnc(-c2ccc3c(c2)OCO3)o1)Oc1ccccc1 -0.93%, COc1cccc(Cn2c(SCC(=O)N3CCN(c4ccc(F)cc4)CC3)nc3ccccc32)c1 -3.29%, O=C(Cn1c(=O)n(Cc2nc(-c3ccccc3)no2)c(=O)c2cc3c(cc21)OCO3)Nc1ccccc1 -0.109%, CCC(C)n1c(=O)c2sccc2n2c(CCCC(=O)N3CCN(c4ccccc4)CC3)nnc12 (configuration not stated) -9.38%, CCOc1ccc(-n2c(SCC(=O)Nc3cc(C)ccc3C)nc3c([nH]c4ccccc43)c2=O)cc1 -2.71%, Cc1ccc(Cn2cc(S(=O)(=O)c3cccc(C)c3)c(=O)c3cc(F)c(N4CCOCC4)cc32)cc1 -5.04%, COc1cccc(Cc2nc3ccccc3nc2SCC(=O)Nc2cccc(C)c2)c1 -7.53%, COc1ccc(CNC(=O)c2sc3nc4n(c(=O)c3c2C)CCCC4)cc1 8.62%, O=C(Nc1cc(-c2ccccc2)sc1C(=O)O)c1cccc(F)c1 -10.8%, O=C(Cc1ccccc1)Nc1sc2c(c1C(=O)Nc1ccccc1Cl)CCCCC2 -1.99%, CC(C)c1ccc(NC(=O)CSC2=Nc3ccccc3C3=NC(CCC(=O)NC4CCCCC4)C(=O)N23)cc1 (configuration not stated) 1.82%, COc1ccc2c(c1)CCc1c(C(=O)Nc3cc(OC)c(Cl)cc3OC)noc1-2 -2.98%, COC(=O)c1cc(Nc2nc3ccccc3nc2NS(=O)(=O)c2ccc(C)cc2)ccc1Cl -0.861%, Cc1cccc(Nc2ncnc3onc(-c4ccc(Cl)cc4)c23)c1C 2.61%, Cc1ccc(-n2c(=O)c3cccnc3n2CC(=O)NCc2ccc(Cl)cc2)cc1 0.27%, Cc1ccc2oc3c(c(=O)c2c1)C(c1ccc(O)cc1)N(CCCN(C)C)C3=O (configuration not stated) -13.2%, COc1ccc(C(=O)Nc2cccc(C(=O)OCc3cc(=O)n4nc(C5CC5)sc4n3)c2)cc1 0%, Cc1cc(F)ccc1NC(=O)C(c1ccccc1)N1Cc2ccccc2C1=O (configuration not stated) -2.89%, Nc1c(C(=O)Nc2ccc(F)cc2)sc2nc(-c3cccs3)cc(C(F)(F)F)c12 -27.3%, COC(=O)c1ccc([C@@H]2Nc3c(OC)ccc(C)c3[C@@H]3C=CC[C@@H]32)cc1 6.23%, CCn1c2ccccc2c2cc(CN3CCN(Cc4ccc(Br)cc4)CC3)ccc21 -0.974%
